Measured values taken from paper PMC4336329 (PLoS ONE, 2015).
Hit rate of the full screen: of about 310,000 compounds, about 2,200 (0.71%) showed an effect of 50% or more. Effects have a minus sign here. The list shows a part of the results.

molecular target: human ether-à-go-go-related gene (hERG) potassium channel (human, UniProt Q12809); experiment: primary screen, population patch clamp on CHO cells stably expressing hERG
Sequence (Q12809 whole entry, looked up): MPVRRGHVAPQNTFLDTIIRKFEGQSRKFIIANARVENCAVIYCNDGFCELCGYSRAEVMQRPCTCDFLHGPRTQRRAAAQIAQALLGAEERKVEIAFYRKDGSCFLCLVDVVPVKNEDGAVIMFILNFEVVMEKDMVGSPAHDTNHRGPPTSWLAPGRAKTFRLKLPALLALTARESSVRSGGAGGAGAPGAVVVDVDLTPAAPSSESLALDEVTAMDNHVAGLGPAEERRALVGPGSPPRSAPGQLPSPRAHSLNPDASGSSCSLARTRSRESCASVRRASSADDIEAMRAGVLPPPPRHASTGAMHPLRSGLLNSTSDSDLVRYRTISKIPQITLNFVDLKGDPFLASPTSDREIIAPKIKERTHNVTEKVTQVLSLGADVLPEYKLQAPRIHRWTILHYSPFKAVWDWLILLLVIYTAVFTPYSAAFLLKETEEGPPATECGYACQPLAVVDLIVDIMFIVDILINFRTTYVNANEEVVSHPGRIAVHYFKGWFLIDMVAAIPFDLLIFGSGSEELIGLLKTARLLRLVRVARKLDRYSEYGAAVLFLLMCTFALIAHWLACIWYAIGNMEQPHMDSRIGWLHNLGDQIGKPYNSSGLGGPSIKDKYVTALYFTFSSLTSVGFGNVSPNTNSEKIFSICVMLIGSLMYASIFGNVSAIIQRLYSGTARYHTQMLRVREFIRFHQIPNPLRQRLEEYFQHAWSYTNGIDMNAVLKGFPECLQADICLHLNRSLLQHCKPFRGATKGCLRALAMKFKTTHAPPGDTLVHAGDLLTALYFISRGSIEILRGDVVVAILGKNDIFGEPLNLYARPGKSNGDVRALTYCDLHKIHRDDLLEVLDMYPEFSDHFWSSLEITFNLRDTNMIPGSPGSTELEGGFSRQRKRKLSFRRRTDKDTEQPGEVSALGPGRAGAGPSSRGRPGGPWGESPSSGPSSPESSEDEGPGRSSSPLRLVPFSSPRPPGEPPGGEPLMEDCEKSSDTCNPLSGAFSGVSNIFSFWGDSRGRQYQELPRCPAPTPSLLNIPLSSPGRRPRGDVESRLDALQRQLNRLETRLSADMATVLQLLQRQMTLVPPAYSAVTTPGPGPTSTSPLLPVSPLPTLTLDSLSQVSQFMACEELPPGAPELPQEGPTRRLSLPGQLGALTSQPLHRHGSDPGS

Row | SMILES | hERG current change (%, negative = inhibition) at 1uM [%]
1 | COC(CNC(=O)c1cc(-c2ccncc2)nc2ccc(S(=O)(=O)N3CCOCC3)cc12)OC | 3.23
2 | O=c1c2ccccc2nc(-c2ccccc2)n1CCCn1ccnc1 | -13.8
3 | CC1(C)CC(=O)C=C(Nc2cccc(F)c2)C1 | 11.2
4 | Cc1c(C(=O)Nc2ccc(S(=O)(=O)N3CCOCC3)cc2)cccc1[N+](=O)[O-] | 12.4
5 | CCc1ccc(CN(C)Cc2nc(Cc3ccccc3)no2)nc1 | 0.564
6 | CC(=O)/C=C\c1ccc(OC(=O)c2cccnc2)cc1 | 19.8
7 | CCOC(=O)C1CCN(C(=O)c2ccc(OCC(=O)Nc3cccc(C(F)(F)F)c3)c(OC)c2)CC1 | -15.2
8 | O=C(CCN1C(=O)c2ccccc2C1=O)NCc1ccco1 | 10.3
9 | CCN(CC)S(=O)(=O)c1ccc(NC(=O)Cn2c(=O)sc3ccccc32)cc1 | 7.41
10 | CCCCC[C@H]1CN(Cc2ccccc2)C(=O)[C@@H]1CC(=O)NCc1ccccc1 | -25.1
11 | Cc1cc(C)cc(OCC(=O)NN2C(=O)c3ccccc3C2=O)c1 | 15.6
12 | N/C(=N\OC(=O)c1cccc(Cl)c1)c1cccnc1 | 0.676
13 | CC(=O)c1ccc(N2CCC(C(=O)O)CC2)cc1 | -2.38
14 | C/C(=N\OCC(=O)Nc1ccccc1C(C)(C)C)c1ccc2c(c1)OCCO2 | 13.9
15 | CCOC(=O)C1=C(c2ccccc2)N=C2SCC(=O)N2C1c1ccc2c(c1)OCO2 (centres unmarked) | -1.68
16 | C#CCNC(=O)C1=C[C@H](c2coc3ccccc3c2=O)[C@@H](CCCO)[C@H](OCC)O1 | -3.42
17 | COc1ccc(NC(=O)CN(c2ccc(F)cc2)S(=O)(=O)c2ccccc2)c(OC)c1 | 4.11
18 | Cc1nnc(SCC(=O)N(CC(C)C)c2c(N)n(CC(C)C)c(=O)[nH]c2=O)n1-c1ccccc1 | 12.3
19 | Cc1cccc(OCC(=O)N(C)CC(=O)Nc2cccc(F)c2)c1C | 10.4

Row | SMILES | hERG current change (%, negative = inhibition) at 1uM [%]
20 | COc1ccc(S(=O)(=O)N2CCCC(C(=O)N3CCN(C)CC3)C2)cc1Cl (centres unmarked) | 18.8
21 | O=C(Nc1ccncc1)C1(c2ccccc2)CCCC1 | 8.12
22 | CCOc1ccc(N2C(=O)Nc3ccc(Br)cc3C2(O)C(=O)NCCN(C)C)cc1 (centres unmarked) | 7.02
23 | COc1ccc(C(=O)/C=C/C(=O)N(Cc2ccccc2OC)C(C(=O)NC2CCCCC2)c2ccncc2)c(O)c1 (centres unmarked) | 10
24 | CC(=O)OCC1OC(c2ccccc2)C(OC(C)=O)C(OC(C)=O)C1OC(C)=O (centres unmarked) | 0.299
25 | COc1ccc(-c2cc3nc[nH]c(=O)c3s2)cc1 | 14.8
26 | CCOC(=O)N1CC[NH+](CCC(=O)Nc2cccc(Br)c2)CC1.[Cl-] | 0.599
27 | Cc1ccc(NS(=O)(=O)c2ccc(N/N=C/c3ccncc3)c([N+](=O)[O-])c2)c(C)c1 | 18.2
28 | COc1ccc(C(=O)NC2CCN(C(=S)Nc3cccc(C)c3C)CC2)cc1 | 3.36
29 | Cc1ccc(Cl)cc1NC(=O)CSc1sc2c(O)cc(=O)[nH]c2c1C#N | 12.3
30 | Cc1ccc(SCCC(=O)Nc2nccs2)cc1 | 5.96
31 | CCCc1cc(=O)n2[nH]c(NCc3ccc(OC)c(OC)c3)nc2n1 | 7.97
32 | O=C(NC1CCCC1)C1CCCN1C(=O)Nc1ccccc1Cl (centres unmarked) | 1.95
33 | Cc1ccn2cc(-c3cccc(S(=O)(=O)N4CC(C)OC(C)C4)c3)nc2c1 (centres unmarked) | 14.7
34 | CN(c1ccccc1)S(=O)(=O)c1ccc(C(=O)NCc2ccccn2)cc1 | 6.41
35 | CCN(CC)C(=O)c1sc(NC(=O)c2ccco2)c(C#N)c1C | 3.1
36 | CC(=O)c1ccc(NC(=O)C2C3CCC(C3)C2C(=O)O)cc1 (centres unmarked) | 15.8
37 | CCOC(=O)NC1(NCC(C)C)Oc2ccccc2O1 | 3.97
38 | O=c1c(-c2ccc(Cl)cc2)coc2c(CN3CCOCC3)c(O)ccc12 | 3.94

Row | SMILES | hERG current change (%, negative = inhibition) at 1uM [%]
39 | CC1CCCN(Cc2nc3c(c(=O)n(C)c(=O)n3C)n2CCCc2ccccc2)C1 (centres unmarked) | 6.69
40 | O=C(O)c1ccc(-n2nc(C(F)(F)F)c3c2CCCC3)cc1 | 15.2
41 | O=C(CSc1nnc(CNC(=O)c2cccs2)o1)Nc1ccccc1C(F)(F)F | 7.51
42 | COc1ccc(NC(=O)c2cccnc2)c([N+](=O)[O-])c1 | 6.98
43 | CC(CCc1ccccc1)NC(=O)COC(=O)c1cccc(N(C)C)c1 (centres unmarked) | 1.39
44 | CCCC1=C(C(=O)OCC)C(c2ccccc2OC)NC(=O)N1 (centres unmarked) | 16.8
45 | COCCNC(=O)C(c1ccc(F)cc1)N(C(=O)CCC(=O)Nc1nccs1)c1ccc(C)cc1 (centres unmarked) | 9.55
46 | CCOC(=O)c1c(CSCc2ccccc2)oc2ccc(O)c(CN(C)C)c12.Cl | 0.859
47 | Cc1csc2c(SCC(=O)NNC(=O)C(Cl)Cl)ncnc12 | 9.55
48 | COCCn1nnnc1CN1CCN(c2cccc(C(F)(F)F)c2)CC1 | -3.76
49 | Cc1ccn(-c2cccc(-n3ccc(C)n3)n2)n1 | 12.1
50 | CC1(C)CC(=O)C2=C(C1)N(c1ccc(F)cc1)C(N)=C(C#N)C2c1cccs1 (centres unmarked) | 4.89
51 | CCC(=O)NC(c1cc(Cl)c2cccnc2c1O)C1CC1 (centres unmarked) | -0.0779
52 | O=C1Nc2ccccc2/C1=N\N1CCOCC1 | 8.38
53 | Cc1ccc(N2CCN(/N=C/c3ccccc3)CC2)cc1 | -0.671
54 | CCc1ccc(NC(=O)CCn2cccc2)cc1 | 11.5
55 | O=C(Nc1ccccc1)OCc1cnc(Cl)s1 | 18.7
56 | O=c1ccc(S(=O)(=O)N2CCCC2)cn1Cc1ccc(Cl)cc1Cl | -0.528
